Measurements as given in PubChem BioAssay AID652104 (National Center for Advancing Translational Sciences (NCATS), 2013).
Hit rate of the full screen: of about 410,000 compounds, about 7,200 (1.8%) were called active. This list was built around the results that the source calls inconclusive (neither active nor inactive); the mix of calls is not that of the screen. The call rests on the fitted dose curve; in most records, active means well fitted activation curve with a large enough effect; inconclusive means small, poorly fitted or top-dose-only effect, or another doubt; inactive means no such curve, though single readings can be large or run the other way. Potencies of inconclusive entries are left out as doubtful fits.

Assay: qHTS of TDP-43 Inhibitors; further: nearly all actives have a fitted effect of over 50% in size; on growth rescue (activation): % of control where 0% means no effect
Conditions: TDP-43 expressing yeast growth rescue, BacTiter-Glo, 24 h; growth rescue (activation): at 46.1 µM (top of the series) unless noted
Procedure, shortened: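 Yeast expressing TDP-43 (pregrown in raffinose, seeded at OD600=0.02 in galactose medium) exposed to compounds 24 hr at 30 deg C. Growth read by BacTiter-Glo luminescence; rescue of toxicity appears as increased signal.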
Potency means the concentration at half of the fitted maximal effect; tags describe the fitted curve by direction and shape.

SMILES	Potency	growth rescue (activation)
O=C(Nc1ccccn1)c1cc(-c2cccc(Cl)c2)nc2ccccc12	inconclusive [activator, partial curve]	–
S=C1CCSc2ccc(Cl)cc2N1	inconclusive [activator, full curve]	–
CCOC(=O)CSc1nnc(-c2ccc(Cl)cc2Cl)o1	inconclusive [activator, partial curve]	–
Cc1cccc(-c2nc3scc(CCNS(=O)(=O)c4ccc(F)cc4C)n3n2)c1	inconclusive [activator, single point]	–
Cc1ccc(NC(=O)c2cc(S(=O)(=O)NCCC3=CCCCC3)ccc2F)cc1C	–	inactive: 2.32%
O=C(CSc1ccc(Cl)cc1)N1CCN(c2ccc([N+](=O)[O-])cc2Cl)CC1	inconclusive [activator, single point]	–
Brc1ccc(CSc2nnc(-c3cccnc3)o2)cc1	–	inactive: -2.04% [at 9.22 µM]
O=C(N/N=C/c1cc(Cl)cc([N+](=O)[O-])c1O)c1cc(-c2ccccn2)nc2ccccc12	inconclusive [activator, partial curve]	–
COc1ccc(NC(=O)COn2nnc3ccc(Cl)cc32)cc1OC	inconclusive [activator, single point]	–
CSC[C@@H]1NC(=S)N(c2ccc(C)cc2)C1=O	inconclusive [activator, partial curve, poor fit]	–
O=S(=O)(NCc1ccc(Cl)cc1Cl)c1cccs1	active: 8.91 µM	–
Cc1cc(C)nc(NC(=NCCc2c[nH]c3ccccc23)NC(=O)Nc2cccc([N+](=O)[O-])c2)n1	inconclusive [activator, single point]	–
C/C(=N\NC(N)=S)C1=CCC2C3CC[C@H]4CC(O)CC[C@]4(C)C3CC[C@]12C (some centres not stated)	inconclusive [activator, partial curve]	–
COc1cccc(C(=O)Oc2ccccc2/C=C\C(=O)c2cc3ccccc3o2)c1	–	inactive: 0%
Cc1ccc(C)c(NC(=S)N2CCC(C(=O)c3ccc(F)cc3)CC2)c1	inconclusive [activator, partial curve]	–
OC[C@H]1O[C@@H](n2cnc3c(Nc4ccccc4)ncnc32)[C@H](O)[C@@H]1O	inconclusive [activator, single point]	–
COc1ccc(N(CC(=O)NC2CCCCC2)S(=O)(=O)c2c(C)[nH]c(=O)[nH]c2=O)cc1	inconclusive [activator, partial curve]	–
CCCCCn1c(CCCNC(=O)c2cccc(C)c2)nc2ccccc21	active: 35.5 µM	–
CCN(C(=S)NCc1ccccc1)c1ccccc1	inconclusive [activator, partial curve]	–
CCN(C(=S)Nc1ccc(OC(F)F)cc1)C1CCCCC1	inconclusive [activator, single point]	–
Cc1ccc(S(=O)(=O)N2CCN(c3nc4ccccc4nc3-n3nc(C)cc3C)CC2)cc1	–	inactive: 1.91%

SMILES	Potency	growth rescue (activation)
O=C(COc1ccc(Br)cc1)N1CCC(c2ccccc2)C1 (configuration not stated)	inconclusive [activator, partial curve]	–
Cc1cc(Cl)c2oc(C(=O)N(C)C(C)c3ccccn3)c(C)c2c1 (configuration not stated)	inconclusive [activator, partial curve]	–
COc1cccc(OCc2cc(C(=O)NCc3ccccn3)no2)c1	inconclusive [activator, single point]	–
Cc1ccc(C)c(OCCC(=O)OCC(=O)N2CCN(S(=O)(=O)c3ccc(Cl)cc3)CC2)c1	inconclusive [activator, single point]	–
O=C(Nc1ccc(Cl)cc1)c1nc[nH]c1C(=O)NCc1ccccc1	inconclusive [activator, partial curve]	–
CCCc1c(C(=O)Nc2ccc(F)cc2F)cnn1-c1ccccc1	inconclusive [activator, single point]	–
Cc1c(N(CC(=O)O)S(=O)(=O)c2ccccc2)c(=O)n(-c2ccccc2)n1C	–	inactive: -7.31%
CC(C)(C)c1ccc(C(=O)Cn2cnnc2C#N)cc1	inconclusive [activator, single point]	–
C=CCOc1nc(N2CCCC2)nc(N2CCCC2)n1	inconclusive [activator, partial curve]	–
COc1ccc(Cc2nnc(SCC(=O)NCCc3ccccc3)o2)cc1	inconclusive [activator, partial curve]	–
Oc1ccccc1Cc1c(O)ccc2ccccc12	active: 15.8 µM	–
CCOc1cc(-c2cc(N)n[nH]2)cc(OCC)c1OCC	inconclusive [activator, partial curve]	–
Cc1ccccc1OCC(=O)Nc1ccc2c(c1)OCO2	inconclusive [activator, partial curve]	–
COC(=O)N1C(=O)[C@](c2ccccc2)(C(C)C)N1C(=O)OC	active: 10 µM	–
Cc1nc2ccccc2cc1C(=O)NCc1ccccc1	inconclusive [activator, partial curve]	–
C=CCn1c(-c2cccs2)nc2nc3ccccc3nc21	inconclusive [activator, single point]	–
CSc1cccc(NC(=S)N(Cc2ccc(C)cc2)Cc2cccnc2)c1	inconclusive [activator, single point]	–
O=C(c1ccoc1)N1CCN(c2cc(-c3cccc(F)c3)nc3cc(-c4cccc(Cl)c4)nn23)CC1	inconclusive [activator, partial curve]	–
COC(=O)c1cc(NC(=O)COC(=O)CCc2c[nH]c3ccccc23)cc(C(=O)OC)c1	–	inactive: 19.6%
O=C(c1ccco1)N1CCN(c2nc(C3CC3)nc3sc4c(c23)CCCC4)CC1	inconclusive [activator, single point]	–
CC(C)CCNC(=O)NC(=O)COc1ccccc1C#N	inconclusive [activator, single point]	–
